T1: RBFOX1 RRM (Homo sapiens, UniProt Q9NWB1 109-208)
T1 sequence: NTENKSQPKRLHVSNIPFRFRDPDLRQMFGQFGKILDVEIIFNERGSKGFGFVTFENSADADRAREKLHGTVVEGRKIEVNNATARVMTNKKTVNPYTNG

B1: ACUUUGG (DNA:RNA)
RNA: GGGAGACCGGAAUUCAGAUUGUCCACUUUGGUUAAAUCCCGUCGUAGCCACCA
DNA 1: CAATCTGAATTCCGGTCTCCC
DNA 2: TGGTGGCTACGACGGGATT
B2: UCAGCGA (DNA:RNA)
RNA: B1 RNA with A25U, U27A, U28G, U29C, G31A
DNA 1: CAATCTGAATTCCGGTCTCCC
DNA 2: TGGTGGCTACGACGGGATT
B3: UAGGUCA (DNA:RNA)
RNA: B1 RNA with A25U, C26A, U27G, U28G, G30C, G31A
DNA 1: CAATCTGAATTCCGGTCTCCC
DNA 2: TGGTGGCTACGACGGGATT
B4: CGCUACA (DNA:RNA)
RNA: B1 RNA with A25C, C26G, U27C, U29A, G30C, G31A
DNA 1: CAATCTGAATTCCGGTCTCCC
DNA 2: TGGTGGCTACGACGGGATT
B5: GCGGCUA (DNA:RNA)
RNA: B1 RNA with A25G, U27G, U28G, U29C, G30U, G31A
DNA 1: CAATCTGAATTCCGGTCTCCC
DNA 2: TGGTGGCTACGACGGGATT
B6: ACAAAGA (DNA:RNA)
RNA: B1 RNA with U27A, U28A, U29A, G31A
DNA 1: CAATCTGAATTCCGGTCTCCC
DNA 2: TGGTGGCTACGACGGGATT
B7: AUUGAGG (DNA:RNA)
RNA: B1 RNA with C26U, U28G, U29A
DNA 1: CAATCTGAATTCCGGTCTCCC
DNA 2: TGGTGGCTACGACGGGATT
B8: AACGGUA (DNA:RNA)
RNA: B1 RNA with C26A, U27C, U28G, U29G, G30U, G31A
DNA 1: CAATCTGAATTCCGGTCTCCC
DNA 2: TGGTGGCTACGACGGGATT
B9: UCCAAAG (DNA:RNA)
RNA: B1 RNA with A25U, U27C, U28A, U29A, G30A
DNA 1: CAATCTGAATTCCGGTCTCCC
DNA 2: TGGTGGCTACGACGGGATT
B10: CUUAUGU (DNA:RNA)
RNA: B1 RNA with A25C, C26U, U28A, G31U
DNA 1: CAATCTGAATTCCGGTCTCCC
DNA 2: TGGTGGCTACGACGGGATT
B11: CGCACCG (DNA:RNA)
RNA: B1 RNA with A25C, C26G, U27C, U28A, U29C, G30C
DNA 1: CAATCTGAATTCCGGTCTCCC
DNA 2: TGGTGGCTACGACGGGATT
B12: GAAAACC (DNA:RNA)
RNA: GGGAGACCGGAAUUCAGAUUGUCCGAAAACCUUAAAUCCCGUCGUAGCCACCA
DNA 1: CAATCTGAATTCCGGTCTCCC
DNA 2: TGGTGGCTACGACGGGATT
B13: AUCACUU (DNA:RNA)
RNA: B1 RNA with C26U, U27C, U28A, U29C, G30U, G31U
DNA 1: CAATCTGAATTCCGGTCTCCC
DNA 2: TGGTGGCTACGACGGGATT
B14: CUCAGCG (DNA:RNA)
RNA: B12 RNA with G25C, A26U, A27C, A29G, C31G
DNA 1: CAATCTGAATTCCGGTCTCCC
DNA 2: TGGTGGCTACGACGGGATT
B15: UAAGUCU (DNA:RNA)
RNA: B12 RNA with G25U, A28G, A29U, C31U
DNA 1: CAATCTGAATTCCGGTCTCCC
DNA 2: TGGTGGCTACGACGGGATT
B16: GAUUCUU (DNA:RNA)
RNA: B1 RNA with A25G, C26A, U29C, G30U, G31U
DNA 1: CAATCTGAATTCCGGTCTCCC
DNA 2: TGGTGGCTACGACGGGATT
B17: UGCAUUA (DNA:RNA)
RNA: B1 RNA with A25U, C26G, U27C, U28A, G30U, G31A
DNA 1: CAATCTGAATTCCGGTCTCCC
DNA 2: TGGTGGCTACGACGGGATT
B18: UACGGGC (DNA:RNA)
RNA: B12 RNA with G25U, A27C, A28G, A29G, C30G
DNA 1: CAATCTGAATTCCGGTCTCCC
DNA 2: TGGTGGCTACGACGGGATT
B19: GAUAUUC (DNA:RNA)
RNA: B12 RNA with A27U, A29U, C30U
DNA 1: CAATCTGAATTCCGGTCTCCC
DNA 2: TGGTGGCTACGACGGGATT
B20: GCUGACG (DNA:RNA)
RNA: B1 RNA with A25G, U28G, U29A, G30C
DNA 1: CAATCTGAATTCCGGTCTCCC
DNA 2: TGGTGGCTACGACGGGATT
B21: AGAUGAG (DNA:RNA)
RNA: B1 RNA with C26G, U27A, U29G, G30A
DNA 1: CAATCTGAATTCCGGTCTCCC
DNA 2: TGGTGGCTACGACGGGATT
B22: UGAGAAG (DNA:RNA)
RNA: B12 RNA with G25U, A26G, A28G, C30A, C31G
DNA 1: CAATCTGAATTCCGGTCTCCC
DNA 2: TGGTGGCTACGACGGGATT
B23: GGUCGAA (DNA:RNA)
RNA: B1 RNA with A25G, C26G, U28C, U29G, G30A, G31A
DNA 1: CAATCTGAATTCCGGTCTCCC
DNA 2: TGGTGGCTACGACGGGATT
B24: GAGGAGA (DNA:RNA)
RNA: B12 RNA with A27G, A28G, C30G, C31A
DNA 1: CAATCTGAATTCCGGTCTCCC
DNA 2: TGGTGGCTACGACGGGATT
B25: CCAUGAA (DNA:RNA)
RNA: B1 RNA with A25C, U27A, U29G, G30A, G31A
DNA 1: CAATCTGAATTCCGGTCTCCC
DNA 2: TGGTGGCTACGACGGGATT
B26: GAGGCUA (DNA:RNA)
RNA: B12 RNA with A27G, A28G, A29C, C30U, C31A
DNA 1: CAATCTGAATTCCGGTCTCCC
DNA 2: TGGTGGCTACGACGGGATT
B27: AACGCAA (DNA:RNA)
RNA: B1 RNA with C26A, U27C, U28G, U29C, G30A, G31A
DNA 1: CAATCTGAATTCCGGTCTCCC
DNA 2: TGGTGGCTACGACGGGATT
B28: CGGGUAU (DNA:RNA)
RNA: B1 RNA with A25C, C26G, U27G, U28G, G30A, G31U
DNA 1: CAATCTGAATTCCGGTCTCCC
DNA 2: TGGTGGCTACGACGGGATT
B29: CAAAACA (DNA:RNA)
RNA: B12 RNA with G25C, C31A
DNA 1: CAATCTGAATTCCGGTCTCCC
DNA 2: TGGTGGCTACGACGGGATT
B30: CGACGAU (DNA:RNA)
RNA: B12 RNA with G25C, A26G, A28C, A29G, C30A, C31U
DNA 1: CAATCTGAATTCCGGTCTCCC
DNA 2: TGGTGGCTACGACGGGATT
B31: UAGAAAA (DNA:RNA)
RNA: B12 RNA with G25U, A27G, C30A, C31A
DNA 1: CAATCTGAATTCCGGTCTCCC
DNA 2: TGGTGGCTACGACGGGATT

Changes are numbered by the printed parent chain; changes in the protein carry UniProt numbers. The list shows a part of the results.

The target in the assay is T1, RBFOX1 RRM. Briefly: EMSA; HiTS-Eq, 1 nM pool, 10 min; buffer printed only for the single-RNA assays: 10 mM Tris pH 7.5, 150 mM NaCl, 3.4 mM EDTA, 0.001% NP-40, 30 C. Particulars: tags: His6 N-terminal (pET28a); label: 5' 32P. The procedure, abridged: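 A pool of RNA with 7 randomized nucleotides, 5′-radiolabelled and with DNA-annealed flanks, was equilibrated at 1 nM for 10 min in 50 µL with purified RbFox RRM, wild type or mutant, across increasing protein concentrations. Free RNA was separated by 8% native PAGE, excised, reverse-transcribed, barcoded by PCR and sequenced. Relative association constants were obtained from read-count changes of each RNA species versus the control reaction and normalised to the cognate motif.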
B1: the binding signal was 0.0131 KA relative to UGCAUGU. With B2 the figure was 0.00561 KA relative to UGCAUGU; with B3, 0.0102 KA relative to UGCAUGU. In the case of B4, the binding signal is 0.0104 KA relative to UGCAUGU. For B5, the binding signal was 0.0205 KA relative to UGCAUGU. On to B6, for which the binding signal is 0.00132 KA relative to UGCAUGU. With B7 the figure was 0.0112 KA relative to UGCAUGU; with B8, 0.00847 KA relative to UGCAUGU. With B9 the figure was 0.00328 KA relative to UGCAUGU. With B10 the figure was 0.00864 KA relative to UGCAUGU; with B11, 0.00744 KA relative to UGCAUGU; with B12, 0.000838 KA relative to UGCAUGU. On to B13, for which the binding signal was 0.000469 KA relative to UGCAUGU. For B14, the binding signal was 0.00772 KA relative to UGCAUGU. With B15, the binding signal was 0.0111 KA relative to UGCAUGU. With B16, the binding signal is 0.011 KA relative to UGCAUGU. In the case of B17, the binding signal was 0.0146 KA relative to UGCAUGU. With B18 the figure was 0.00384 KA relative to UGCAUGU. As to B19, the binding signal was 0.00674 KA relative to UGCAUGU. With B20 the figure was 0.022 KA relative to UGCAUGU.

Regarding B21, the binding signal is 0.0142 KA relative to UGCAUGU. With B22 the figure was 0.0158 KA relative to UGCAUGU; with B23, 0.00851 KA relative to UGCAUGU; with B24, 0.0102 KA relative to UGCAUGU.

B25: the binding signal was 0.00298 KA relative to UGCAUGU.

In the case of B26, the binding signal was 0.0178 KA relative to UGCAUGU. Regarding B27, the binding signal is 0.00455 KA relative to UGCAUGU. With B28, the binding signal was 0.0264 KA relative to UGCAUGU.

Turning to B29, the binding signal was 0.00134 KA relative to UGCAUGU. With B30 the figure was 0.011 KA relative to UGCAUGU. With B31 the figure was 0.00205 KA relative to UGCAUGU.

The values are drawn from PMC9911399, “Two distinct binding modes provide the RNA-binding protein RbFox with extraordinary sequence specificity”.
